Experimental data taken from US20230143604A1, “QW DOSING OF GIP RECEPTOR AGONIST PEPTIDE COMPOUNDS AND USES THEREOF” (TAKEDA PHARMACEUTICAL COMPANY LIMITED, priority 2020, published 2023).
Where two headings read alike, the source gives them in different places. Not every detail of the peptide structures is certain; ends, links or a residue may be inferred. Starred links: 1 amine or outer side, 2 acyl side, 3 side chain; linkers in the order of their positions; H or OH if unused. Non-standard residues stand in square brackets, D forms with d. Residues, ends and D or L forms follow the SMILES beside them. Groups on a side chain read outwards from the residue. *: point of attachment. C18 diacid = O=C(O)CCCCCCCCCCCCCCCCC(=O)*; γGlu = O=C(O)[C@H](CCC(=O)[*:2])N[*:1]; NMeY = CN[C@@H](Cc1ccc(O)cc1)C(=O)O; AEEA = NCCOCCOCC(=O)O; Aib = CC(C)(N)C(=O)O

Molecular target: T1, human GLP-1R (Homo sapiens, UniProt P43220)
T1 construct: HEK-293T cells overexpressing full-length human GLP-1R; FLAG (N); host or cells: HEK-293T
Test: Human GLP1R agonist activity, intracellular cAMP accumulation
Type: cell-based
Outline: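 Frozen assay-ready cells washed and resuspended at 4×10^5 cells/mL in Krebs Ringer buffer, then incubated with compound 1 hr at room temperature in the dark. cAMP read by HTRF (anti-cAMP antibody, d2-cAMP tracer). Normalised to 1 nm GLP-1 (100%) and DMSO (0%).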

[1] = read-out: Human GLP1R cAMP EC50, HEK293T, HEK-293T cells overexpressing human GLP-1R, 1 hr
[2] = HEK-293T cells overexpressing human GLP-1R, 1 hr, read-out: Human GLP1R cAMP EC50, HEK293T

T1 sequence (P43220 24-463): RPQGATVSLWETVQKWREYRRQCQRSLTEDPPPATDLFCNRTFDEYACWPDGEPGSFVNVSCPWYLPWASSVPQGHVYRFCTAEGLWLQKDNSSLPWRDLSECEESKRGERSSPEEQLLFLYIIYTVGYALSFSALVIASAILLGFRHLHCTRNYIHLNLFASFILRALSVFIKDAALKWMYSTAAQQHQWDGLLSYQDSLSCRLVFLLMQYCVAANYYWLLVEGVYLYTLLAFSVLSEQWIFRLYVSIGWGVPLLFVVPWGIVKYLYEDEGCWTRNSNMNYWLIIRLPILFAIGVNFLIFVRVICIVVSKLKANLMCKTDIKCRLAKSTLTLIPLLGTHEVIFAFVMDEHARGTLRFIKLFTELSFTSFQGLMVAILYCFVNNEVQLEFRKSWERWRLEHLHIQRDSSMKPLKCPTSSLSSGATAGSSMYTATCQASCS

Row | SMILES | EC50 [1] | EC50 [2]
1 | CC[C@H](C)[C@H](NC(=O)[C@H](CO)NC(=O)[C@H](Cc1ccc(O)cc1)NC(=O)[C@H](CC(=O)O)NC(=O)[C@H](CO)NC(=O)[C@@H](NC(=O)[C@H](Cc1ccccc1)NC(=O)[C@@H](NC(=O)CNC(=O)[C@H](CCC(=O)O)NC(=O)C(C)(C)NC(=O)[C@H](Cc1ccc(O)cc1)NC)[C@@H](C)O)[C@@H](C)CC)C(=O)N[C@@H](C)C(=O)N[C@@H](CC(C)C)C(=O)N[C@@H](CC(=O)O)C(=O)N[C@@H](CCCNC(=N)N)C(=O)NC(C)(C)C(=O)N[C@@H](Cc1c[nH]cn1)C(=O)N[C@@H](CCC(N)=O)C(=O)NC(C)(C)C(=O)N[C@@H](CC(N)=O)C(=O)N[C@@H](Cc1ccccc1)C(=O)N[C@H](C(=O)N[C@@H](CC(N)=O)C(=O)N[C@@H](Cc1c[nH]c2ccccc12)C(=O)N[C@@H](CC(C)C)C(=O)N[C@@H](CC(C)C)C(=O)N[C@@H](C)C(=O)N[C@@H](CCC(N)=O)C(=O)N[C@@H](CCCCNC(=O)COCCOCCNC(=O)COCCOCCNC(=O)CC[C@H](NC(=O)CCCCCCCCCCCCCCCCC(=O)O)C(=O)O)C(=O)N1CCC[C@H]1C(=O)N[C@@H](CO)C(=O)N[C@@H](CO)C(=O)NCC(=O)N[C@@H](C)C(=O)N1CCC[C@H]1C(=O)N1CCC[C@H]1C(=O)N1CCC[C@H]1C(=O)N[C@@H](CO)C(N)=O)C(C)C [Compound 1] (H-[NMeY][Aib]EGTFISDYSIALDR[Aib]HQ[Aib]NFVNWLLAQK([AEEA-AEEA-γGlu-C18 diacid])PSSGAPPPS-NH2) | 10.5 nM | –
2 | CC[C@H](C)[C@H](NC(=O)[C@H](Cc1ccccc1)NC(=O)[C@@H](NC(=O)CNC(=O)[C@H](CCC(=O)O)NC(=O)C(C)(C)NC(=O)[C@@H](N)Cc1ccc(O)cc1)[C@@H](C)O)C(=O)N[C@@H](CO)C(=O)N[C@@H](CC(=O)O)C(=O)N[C@@H](Cc1ccc(O)cc1)C(=O)N[C@@H](CO)C(=O)N[C@H](C(=O)NC(C)(C)C(=O)N[C@@H](CC(C)C)C(=O)N[C@@H](CC(=O)O)C(=O)N[C@@H](CCCCN)C(=O)N[C@@H](C)C(=O)N[C@@H](CCCCNC(=O)COCCOCCNC(=O)COCCOCCNC(=O)CC[C@H](NC(=O)CCCCCCCCCCCCCCCCC(=O)O)C(=O)O)C(=O)N[C@@H](CCC(N)=O)C(=O)N[C@@H](CCC(N)=O)C(=O)N[C@@H](CC(=O)O)C(=O)N[C@@H](Cc1ccccc1)C(=O)N[C@H](C(=O)N[C@@H](CC(N)=O)C(=O)N[C@@H](Cc1c[nH]c2ccccc12)C(=O)N[C@@H](CC(C)C)C(=O)N[C@@H](CC(C)C)C(=O)N[C@@H](C)C(=O)N[C@@H](CCC(N)=O)C(=O)N[C@@H](CCCNC(=N)N)C(=O)NCC(=O)O)C(C)C)[C@@H](C)CC [Compound 170] (H-Y[Aib]EGTFISDYSI[Aib]LDKAK([AEEA-AEEA-γGlu-C18 diacid])QQDFVNWLLAQRG-OH) | – | 61.7 nM
3 | CC[C@H](C)[C@H](NC(=O)[C@H](Cc1ccccc1)NC(=O)[C@@H](NC(=O)CNC(=O)[C@H](CCC(=O)O)NC(=O)C(C)(C)NC(=O)[C@@H](N)Cc1ccc(O)cc1)[C@@H](C)O)C(=O)N[C@@H](CO)C(=O)N[C@@H](CC(=O)O)C(=O)N[C@@H](Cc1ccc(O)cc1)C(=O)N[C@@H](CO)C(=O)N[C@H](C(=O)NC(C)(C)C(=O)N[C@@H](CC(C)C)C(=O)N[C@@H](CC(=O)O)C(=O)N[C@@H](CCCCN)C(=O)N[C@@H](C)C(=O)N[C@@H](CCCCNC(=O)COCCOCCNC(=O)COCCOCCNC(=O)CC[C@H](NC(=O)CCCCCCCCCCCCCCCCC(=O)O)C(=O)O)C(=O)N[C@@H](CCC(N)=O)C(=O)N[C@@H](CCC(N)=O)C(=O)N[C@@H](CC(=O)O)C(=O)N[C@@H](Cc1ccccc1)C(=O)N[C@H](C(=O)N[C@@H](CCC(=O)O)C(=O)N[C@@H](Cc1c[nH]c2ccccc12)C(=O)N[C@@H](CC(C)C)C(=O)N[C@@H](CC(C)C)C(=O)N[C@@H](C)C(=O)N[C@@H](CCC(N)=O)C(=O)N[C@@H](CCCNC(=N)N)C(=O)NCC(=O)O)C(C)C)[C@@H](C)CC [Compound 169] (H-Y[Aib]EGTFISDYSI[Aib]LDKAK([AEEA-AEEA-γGlu-C18 diacid])QQDFVEWLLAQRG-OH) | – | 178 nM
4 | CC[C@H](C)[C@H](NC(=O)[C@H](Cc1ccccc1)NC(=O)[C@@H](NC(=O)CNC(=O)[C@H](CCC(=O)O)NC(=O)C(C)(C)NC(=O)[C@H](Cc1ccc(O)cc1)NC)[C@@H](C)O)C(=O)N[C@@H](CO)C(=O)N[C@@H](CC(=O)O)C(=O)N[C@@H](Cc1ccc(O)cc1)C(=O)N[C@@H](CO)C(=O)N[C@H](C(=O)NC(C)(C)C(=O)N[C@@H](CC(C)C)C(=O)N[C@@H](CC(=O)O)C(=O)N[C@@H](CCCNC(=N)N)C(=O)NC(C)(C)C(=O)N[C@@H](C)C(=O)N[C@@H](CCC(N)=O)C(=O)NC(C)(C)C(=O)N[C@@H](CCCCNC(=O)COCCOCCNC(=O)CC[C@H](NC(=O)CC[C@H](NC(=O)CCCCCCCCCCCCCCCCC(=O)O)C(=O)O)C(=O)O)C(=O)N[C@@H](Cc1ccccc1)C(=O)N[C@H](C(=O)N[C@@H](CC(N)=O)C(=O)N[C@@H](Cc1c[nH]c2ccccc12)C(=O)N[C@@H](CC(C)C)C(=O)N[C@@H](CC(C)C)C(=O)N[C@@H](C)C(=O)N[C@@H](CCC(N)=O)C(=O)N[C@@H](CCCNC(=N)N)C(=O)NCC(=O)O)C(C)C)[C@@H](C)CC [Compound 207] (H-[NMeY][Aib]EGTFISDYSI[Aib]LDR[Aib]AQ[Aib]K([AEEA-γGlu-γGlu-C18 diacid])FVNWLLAQRG-OH) | – | 36.3 nM
5 | CC[C@H](C)[C@H](NC(=O)[C@H](CO)NC(=O)[C@H](Cc1ccc(O)cc1)NC(=O)[C@H](CC(=O)O)NC(=O)[C@H](CO)NC(=O)[C@@H](NC(=O)[C@H](Cc1ccccc1)NC(=O)[C@@H](NC(=O)CNC(=O)[C@H](CCC(=O)O)NC(=O)C(C)(C)NC(=O)[C@H](Cc1ccc(O)cc1)NC)[C@@H](C)O)[C@@H](C)CC)C(=O)N[C@@H](C)C(=O)N[C@@H](CC(C)C)C(=O)N[C@@H](CC(=O)O)C(=O)N[C@@H](CCCNC(=N)N)C(=O)N[C@H](C(=O)N[C@@H](Cc1c[nH]cn1)C(=O)N[C@@H](CCC(N)=O)C(=O)N[C@@H](CCC(N)=O)C(=O)N[C@@H](CC(N)=O)C(=O)N[C@@H](Cc1ccccc1)C(=O)N[C@H](C(=O)N[C@@H](CC(N)=O)C(=O)N[C@@H](Cc1c[nH]c2ccccc12)C(=O)N[C@@H](CC(C)C)C(=O)N[C@@H](CC(C)C)C(=O)N[C@@H](C)C(=O)N[C@@H](CCC(N)=O)C(=O)N[C@@H](CCCCNC(=O)COCCOCCNC(=O)COCCOCCNC(=O)CC[C@H](NC(=O)CCCCCCCCCCCCCCCCC(=O)O)C(=O)O)C(=O)N1CCC[C@H]1C(=O)N[C@@H](CO)C(=O)N[C@@H](CO)C(=O)NCC(=O)N[C@@H](C)C(=O)N1CCC[C@H]1C(=O)N1CCC[C@H]1C(=O)N1CCC[C@H]1C(=O)N[C@@H](CO)C(N)=O)C(C)C)[C@@H](C)CC [Compound 190] (H-[NMeY][Aib]EGTFISDYSIALDRIHQQNFVNWLLAQK([AEEA-AEEA-γGlu-C18 diacid])PSSGAPPPS-NH2) | 97.7 nM | –
